Molecules are shown by their SMILES. In all, about 150,000 compounds went through this assay and about 540 (0.36%) showed an effect of 50% or more. The list shows a part of the results.

The subject of this assay is Plasmodium falciparum. Kind of assay: Primary screen in NF54 nanoGlo assay, in single point, at 2uM, 72h; a lower Z score goes with more inhibition. It counts as functional, Erythrocyte. The conditions noted are these: timepoint 72 hour.
As to `CC(C)N1CCc2c(C#N)c(NCc3ccccc3)n3cnnc3c2C1`, the % Inhibition (as a rule, the relative decrease from the control value, in per cent) is 2% and the Z score was -0.26.

For `Cc1cc(C)c(CC(=O)NS(=O)(=O)CC(F)(F)F)c(C)c1`, the “% Inhibition” value is on record as -9% and the Z score amounted to 1.5.

Regarding `CC(=O)Nc1cccc(NC(=O)CN2CCS(=O)(=O)CC2(C)C)c1`, the “% Inhibition” value was -13% and the Z score amounted to 2.36.

For the molecule `CCOC(=O)N1CCN(C(=O)CN2CCC(COCc3ccccc3)CC2)CC1`, the “% Inhibition” value was -3% and the Z score is listed as 0.35.

As to `C=CCNC(=O)Cc1ccc(CC)cc1`, the “% Inhibition” value is -14% and the Z score came out at 2.21.

Take `Cc1nc2cc(NC(=O)[C@H]3CC(=O)N(c4cccc(Br)c4)C3)ccc2o1`: the “% Inhibition” value was -4% and the Z score is 0.67.

In the case of `c1nnnn1CCCc1nc(C2CC2)n[nH]1`, the “% Inhibition” value is on record as -11% and the Z score was 2.1.

As to `CCc1nn(C)c(Cl)c1CN(Cc1ccco1)[C@@H](C)C(C)C`, the “% Inhibition” value amounted to 6% and the Z score was -1.05.

On to `O=C1CC(C(=O)Nc2nccs2)N2C(=O)c3ccccc3C2N1` (stereo unspecified), for which the “% Inhibition” value is -6% and the Z score is given as 0.82.

Take `CC(C)C(NC(=O)COc1ccccc1)C(C)C`: the “% Inhibition” value is on record as -6% and the Z score is 0.79.

For the molecule `Cn1ccc(C2CCN(C(=O)Nc3ccc(=O)n(C)n3)CC2)n1`, the “% Inhibition” value is -13% and the Z score was 1.43.

`CC(=O)C(C(=O)CN(C)c1ccccc1)=C(C)N`: the “% Inhibition” value is on record as 6% and the Z score was -0.97.

Consider `CCC(C)NC(=O)c1coc(CN(Cc2cc(OC)ccc2OC)C(C)c2ccccc2)n1` (stereo unspecified), for which the “% Inhibition” value is recorded as -9% and the Z score came to 0.82.

Take `CCN(c1ccc(NC(=O)COC(=O)[C@H](C)NC2=NS(=O)(=O)c3ccccc32)cc1)C(C)C`: the “% Inhibition” value is -8% and the Z score is on record as 1.37.

`CCc1ccc(CN2C[C@@H]3CC[C@H]2CN(Cc2cccnc2)C3)nc1`: the “% Inhibition” value was -14% and the Z score worked out at 1.97.

Turning to `CCc1c(C(=O)N2CC[C@]3(OC)CC[C@@H](OC)C[C@H]23)[nH]c2ccccc12`, the “% Inhibition” value is listed as 8% and the Z score is -0.96.

With `Cc1cccc(C)c1NCC(=O)NC1C2CCOC2C12CCC2` (stereo unspecified), the “% Inhibition” value was -7% and the Z score is on record as 0.62.

`O=C(Cc1ccccc1OC(F)F)N[C@H]1CS(=O)(=O)Cc2ccccc21`: the “% Inhibition” value is recorded as -3% and the Z score worked out at 0.5.

Consider `CCOCC1CCCN(C(=O)NC(C)CCC2CCCO2)C1` (stereo unspecified), for which the “% Inhibition” value is -19% and the Z score is given as 3.03.

Regarding `CCOC(=O)c1cnn(-c2nc(-c3ccccc3)cs2)c1CN1CCN(CCO)CC1`, the “% Inhibition” value is recorded as -9% and the Z score is reported as 1.2.

In the case of `CCCS(=O)(=O)N1CCCc2cc(NS(=O)(=O)CCc3ccc(OC)cc3)ccc21`, the “% Inhibition” value is given as 20% and the Z score is listed as -2.5.

Turning to `CCc1nnc2cc(N3CCN(Cc4cccc5[nH]ccc45)CC3)cnn12`, the “% Inhibition” value was -11% and the Z score is on record as 1.37.

Consider `C[C@@H]1CN(Cc2ccc(OCCCn3ccnc3)cc2)CCN1`, for which the “% Inhibition” value was found to be 7% and the Z score was -1.02.

For the molecule `Cc1cc(C(=O)Nc2scc(-c3ccc(C)c(C)c3)c2C(N)=O)no1`, the “% Inhibition” value is on record as -36% and the Z score came to 3.34.

As to `O=C(CCc1c(Cl)cccc1Cl)NCc1cccnc1-c1cccnc1`, the “% Inhibition” value was determined as 0% and the Z score is 0.01.

For the molecule `FC(F)(F)c1cnc(-n2ccc3cccnc32)c(Cl)c1`, the “% Inhibition” value amounted to 3% and the Z score is recorded as -0.51.

With `Cc1n[nH]c(C)c1CN(C)c1cc([C@H]2CCOC2)ncn1`, the “% Inhibition” value is recorded as -9% and the Z score was found to be 1.7.

For `NS(=O)(=O)c1ccc(N2CCC[C@@]3(C2)OCc2ccccc23)c(C(=O)O)c1`, the “% Inhibition” value is -14% and the Z score is 1.49.

`CC(C)(C)c1nc(-c2noc(Cc3c[nH]c4ccccc34)n2)co1`: the “% Inhibition” value came out at 0% and the Z score stood at 0.02.

For the molecule `COc1ccc(CNC(=O)c2cnc3[nH]c(=O)[nH]c3c2)cc1`, the “% Inhibition” value was 2% and the Z score was -0.21.

With `CC(C)NC(=O)CS(=O)(=O)c1ccc2[nH]ncc2c1`, the “% Inhibition” value is on record as -1% and the Z score was 0.24.

As for `CCC1(CC)Oc2ccc(NC(=O)N[C@@H]3C=C[C@H](CO)C3)cc2O1`, the “% Inhibition” value is -9% and the Z score stood at 1.15.

For the molecule `CCN(CC(=O)N1CCO[C@@H](C)C1)C1CCCCC1`, the “% Inhibition” value is -16% and the Z score came out at 2.56.

On to `CNc1cccc(-c2cn(C(C)C)nn2)c1`, for which the “% Inhibition” value is listed as -13% and the Z score is on record as 2.43.

`O=C(NCn1cncn1)c1ccccc1O`: the “% Inhibition” value is given as 7% and the Z score was -0.89.

On to `COc1ccc(NC(=O)N2CCC[C@@H]2Cn2cncn2)c(OC)c1`, for which the “% Inhibition” value is -9% and the Z score is on record as 1.6.

As for `Cc1c(CNCCc2ccccc2)c(C(=O)O)c(C)n1-c1ccccc1`, the “% Inhibition” value is -3% and the Z score came out at 0.51.

As to `COc1ccc([C@@H]2CCCN2C(=O)c2cc(C(C)=O)cn2C)cc1OC`, the “% Inhibition” value is 17% and the Z score is listed as -2.17.

Consider `Cc1c(C(=O)NCc2ccccc2)cc(-c2ccccc2)n1-c1ccccc1F`, for which the “% Inhibition” value is -3% and the Z score was 0.37.

With `CN(C)C(=O)C1CCN(Cc2ncc(-c3ccccc3)s2)CC1`, the “% Inhibition” value is -23% and the Z score is recorded as 3.05.

As for `CCN1Cc2ccccc2C[C@H]1c1nc(CC(N)=O)n[nH]1`, the “% Inhibition” value was -4% and the Z score came out at 0.8.

On to `CCCN(CC(=O)NC)C(=O)c1c(C)noc1C(C)C`, for which the “% Inhibition” value was -4% and the Z score is recorded as 0.62.

For the molecule `COc1ccc(F)c(CN2CC[C@@H]3CN(C(=O)c4ccsc4)C[C@@H]32)c1`, the “% Inhibition” value was -1% and the Z score amounted to 0.1.

The values above are taken from ChEMBL document CHEMBL4888484, “Replenishing the malaria drug discovery pipeline: Screening and hit evaluation of the MMV Hit Generation Library 1 (HGL1) against asexual blood stage Plasmodium falciparum ,using a nano luciferase reporter read-out” (2022).
